Source: ChEMBL document CHEMBL4888484, “Replenishing the malaria drug discovery pipeline: Screening and hit evaluation of the MMV Hit Generation Library 1 (HGL1) against asexual blood stage Plasmodium falciparum ,using a nano luciferase reporter read-out” (2022)
Out of some 150,000 compounds screened, about 540 (0.36%) showed an effect of 50% or more. The list shows a part of the results.

What follows are compounds tested on Plasmodium falciparum (assay: Primary screen in NF54 nanoGlo assay, in single point, at 2uM, 72h; a lower Z score goes with more inhibition). Conditions: timepoint 72 hour.
Assay type: functional, Erythrocyte
`Cc1ccc(NC(=O)c2ccc3c(c2)nnn3Cc2ccccc2C)nc1` was tested, and the “% Inhibition” value was -10% and the Z score was 0.98.
For `CC(C)(C(=O)Nc1nc(-c2ccsc2)ns1)C(F)(F)F`, the “% Inhibition” value was -3% and the Z score was 0.38.
With `COC1CC(Oc2ccccc2C(N)=O)C1` (stereo not given) the “% Inhibition” value was 1% and the Z score was -0.16.
With `NC(=O)c1c(NC(=O)c2csc3c2CCCC3)sc2c1CCCC2` the “% Inhibition” value was 5% and the Z score was -0.55.
For `COC[C@@H]1[C@H](C(=O)Nc2ccc3c(c2)OCCO3)CCCN1C`, the “% Inhibition” value was -16% and the Z score was 1.91.
With `CCCn1nc(C)cc1CN(C)C(=O)c1ccc(CC2CCN(S(C)(=O)=O)CC2)cc1` the “% Inhibition” value was -8% and the Z score was 1.36.
In the case of `Cc1nn(C)c(C)c1CN1CC[C@H](O)CC(C)(C)C1`, the “% Inhibition” value is reported as 4% and the Z score is reported as -0.8.
In the case of `Cc1cc(CNC(=O)c2ccc(S(=O)(=O)N(C)C)cc2)ncn1`, the “% Inhibition” value is reported as 17% and the Z score is reported as -2.18.
In the case of `CCOc1ccc(-n2ccn3c(C[C@@H](C)CC(=O)Nc4cccc(F)c4)nnc3c2=O)cc1`, the “% Inhibition” value is reported as 4% and the Z score is reported as -0.61.
`Cc1nnc(CN(CCN2CCOCC2)c2ccccc2)o1` was tested, and the “% Inhibition” value was -5% and the Z score was 0.58.
For `CCN(CC)CCNC(=O)c1nc(C2CC2)no1`, the “% Inhibition” value was 3% and the Z score was -0.29.
For `Cc1nn(C)c(C)c1CN1CCN(Cc2noc(C3CCCCC3)n2)CC1`, the “% Inhibition” value was 5% and the Z score was -0.73.
With `Cn1c(N)c2c(=O)n(C)c(-c3cccc4ccccc34)cc2c(C#N)c1=O` the “% Inhibition” value was -14% and the Z score was 2.56.
For `Cc1nc(N2CCC[C@H](C(=O)Nc3cccc(Cl)c3)C2)c2c(C)c(C)oc2n1`, the “% Inhibition” value was 4% and the Z score was -0.52.
For `CC(C)Oc1ccccc1CC(=O)N[C@H]1CC[C@H](CO)CC1`, the “% Inhibition” value was -3% and the Z score was 0.27.
With `Cc1snnc1C(=O)NCc1cccs1` the “% Inhibition” value was 1% and the Z score was -0.1.
With `Cc1cc(=O)n(CC(=O)Nc2ccccc2C)c(N2CCc3ccccc3C2)n1` the “% Inhibition” value was -19% and the Z score was 1.7.
In the case of `O=C(Nc1ccccc1N1CCCN(Cc2ccc(OC(F)(F)F)cc2)C1=O)c1ccccc1Cl`, the “% Inhibition” value is reported as -2% and the Z score is reported as 0.4.
`COc1ccc(N[C@H]2CCCN(Cc3cc(F)ccc3-n3nc(C)cc3C)C2)cc1OC` was tested, and the “% Inhibition” value was -5% and the Z score was 0.61.
With `Cc1ccc(-c2c(C)nn3c2NC(=O)CCC3=O)cc1S(=O)(=O)NCCCc1ccccc1` the “% Inhibition” value was 13% and the Z score was -1.5.
For `COc1ccc(F)cc1C(=O)N1CCn2nc(CCC(=O)NC(C)C)cc2C1`, the “% Inhibition” value was 16% and the Z score was -1.98.
`CC(C)[C@](C)(NCc1nc(C(C)(C)C)co1)C(N)=O` was tested, and the “% Inhibition” value was -8% and the Z score was 1.48.
`CC(C)Oc1c(Cl)cc(CN(C)[C@H]2CCN(C)C2)cc1Cl` was tested, and the “% Inhibition” value was -13% and the Z score was 2.58.
With `CCN(CCOc1c(C)cccc1C)C(=O)NCCN1CCCC1=O` the “% Inhibition” value was -11% and the Z score was 1.75.
With `COc1ccc(OCC(=O)Nc2cc(C)nn2-c2nc3c(cnn3-c3ccc(C)cc3)c(=O)[nH]2)cc1` the “% Inhibition” value was -15% and the Z score was 2.54.
With `C[C@@H](Cc1cccnc1)NC(=O)c1cc(COc2c(F)cccc2F)on1` the “% Inhibition” value was 14% and the Z score was -1.78.
For `CCC(C)(C)COC(=O)c1cnn(C)c1C(F)F`, the “% Inhibition” value was 2% and the Z score was -0.17.
With `CN(Cc1c(Cl)ccc(O)c1Cl)C[C@H]1CC(=O)N(C)C1` the “% Inhibition” value was -13% and the Z score was 2.02.
With `CCc1ccc(C(=O)N(C)[C@@H](C)CS(=O)(=O)CC)o1` the “% Inhibition” value was -5% and the Z score was 0.61.
For `COc1c(F)cc(NC(=O)c2ccc(Oc3ccncc3)c(Cl)c2)cc1F`, the “% Inhibition” value was -16% and the Z score was 1.82.
`CC(=O)Nc1cccc(NC(=O)c2cc(O)ncn2)c1` was tested, and the “% Inhibition” value was 7% and the Z score was -1.2.
With `CCOC(=O)c1cc(-c2ccc(N3CCN(C(=O)c4c(F)cc(F)cc4F)CC3)cc2)n(-c2ccc(F)cc2)n1` the “% Inhibition” value was -7% and the Z score was 1.18.
For `O[C@H]1CCN(c2nc3ccc(Cl)cc3s2)C[C@@H]1O`, the “% Inhibition” value was 9% and the Z score was -1.37.
For `Cc1noc(-c2cc(S(=O)(=O)Nc3ccc(F)cc3Cl)c(C)s2)c1C`, the “% Inhibition” value was 6% and the Z score was -1.06.
In the case of `C[C@@H](C(=O)Nc1nccs1)c1ccc(C[C@@H]2CCCC2=O)cc1`, the “% Inhibition” value is reported as -6% and the Z score is reported as 0.81.
With `CCN1CCN(Cc2nc(C(F)(F)F)no2)[C@H]2CS(=O)(=O)C[C@H]21` the “% Inhibition” value was -23% and the Z score was 2.08.
`CCOc1ccccc1C=C(C(=O)NCCc1ccc(OC)cc1)C(=O)NCCc1ccc(OC)cc1` was tested, and the “% Inhibition” value was -6% and the Z score was 1.03.
With `O[C@H]1CN(CC2CCCCC2)CC[C@@H]1N1CCCCCC1` the “% Inhibition” value was 16% and the Z score was -2.02.
`Cc1noc(C)c1CCc1nc(C2CC2)nn1CCO` was tested, and the “% Inhibition” value was -6% and the Z score was 1.09.
With `CCc1ncc(CN[C@@H](Cc2ccc(C)cc2)c2cccnc2)s1` the “% Inhibition” value was -8% and the Z score was 1.07.
For `Cn1cc(C(=O)N2CC[C@@]3(CCCN(C4CCCCC4)C3=O)C2)cn1`, the “% Inhibition” value was -9% and the Z score was 1.09.
In the case of `CN(CCCNC(=O)Nc1cn(C)nn1)c1ccccc1`, the “% Inhibition” value is reported as -8% and the Z score is reported as 1.64.
`CN(Cc1ccc2cc(O)ccc2c1)Cc1cc[nH]n1` was tested, and the “% Inhibition” value was -16% and the Z score was 1.45.
With `C[C@@H](c1nccs1)N(C)C(=O)NCC1(CN2CCOCC2)CC1` the “% Inhibition” value was 11% and the Z score was -1.48.
With `Cc1ccc(CNC(=O)c2ccc(S(=O)(=O)N[C@H]3CCOC3)cc2)o1` the “% Inhibition” value was -5% and the Z score was 0.47.
`CC1(C)C(NC(=O)Nc2ccc(N3CCCC3)c(F)c2)C2CCOC21` (stereo not given) was tested, and the “% Inhibition” value was -8% and the Z score was 0.97.
For `O=C(NCc1ccccn1)c1ccc2nc(C3CC3)oc2c1`, the “% Inhibition” value was -10% and the Z score was 1.36.
With `O=C(O)CC[C@@H]1CN(Cc2cccc(Cl)c2)CC[C@@H]1N1CCN(c2ccccc2F)CC1` the “% Inhibition” value was 5% and the Z score was -0.94.
For `Cc1ccc(-c2noc(-c3c(O)c4ccccc4n(C)c3=O)n2)cc1`, the “% Inhibition” value was -1% and the Z score was 0.15.
`O=C(Nc1ccc(F)cc1)N[C@H]1CCN(c2ccc(C(F)(F)F)cn2)C1` was tested, and the “% Inhibition” value was -12% and the Z score was 2.31.
`CC(C)(C)NC(=O)C(=O)NCc1ccc(Cl)cc1Cl` was tested, and the “% Inhibition” value was -6% and the Z score was 0.82.
For `Cc1nc(C(=O)NCCc2cn[nH]c2)cs1`, the “% Inhibition” value was 19% and the Z score was -2.45.
With `Cc1ncc(C(=O)N2CC[C@H](NC(=O)OCc3ccccc3)C2)c(C)n1` the “% Inhibition” value was -7% and the Z score was 0.97.
In the case of `CC(C)c1ccc(-c2noc(CN3CCC[C@H]3c3cccs3)n2)cc1`, the “% Inhibition” value is reported as -8% and the Z score is reported as 1.11.
`CCCc1cncnc1NCC[C@H]1CCCOC1` was tested, and the “% Inhibition” value was -7% and the Z score was 1.13.
For `Cc1ccc(NC(=O)c2c(C)nc3sc(C(=O)NCc4ccccc4)c(N)c3c2-c2cccnc2)c(C)c1`, the “% Inhibition” value was 21% and the Z score was -3.35.
With `O=C(C[C@@H]1NC(=O)N(c2cc(F)c(F)c(F)c2)C1=O)N1CCc2ccccc2C1` the “% Inhibition” value was -6% and the Z score was 0.75.
With `Cc1ccc(Cn2c3c(c(C)c2C(=O)NCc2cccc(C(F)(F)F)c2)CCCC3)cc1` the “% Inhibition” value was -13% and the Z score was 1.23.
With `CNC(=O)CNC(=O)NC1CC2CCC(C)(C)c3cccc1c32` (stereo not given) the “% Inhibition” value was -16% and the Z score was 2.48.
In the case of `Cc1ccc(NC(=O)CO[C@H](C)CNS(C)(=O)=O)cc1`, the “% Inhibition” value is reported as -5% and the Z score is reported as 0.6.
`COc1ccc(-c2csc(NC3=NCCCCC3)n2)cc1` was tested, and the “% Inhibition” value was -9% and the Z score was 0.87.
For `CCc1nc([C@@H]2COCCO2)n(-c2ccc3nc(C)sc3c2)n1`, the “% Inhibition” value was 1% and the Z score was -0.12.
In the case of `C[C@H](NC(=O)c1ccc(-c2cc(Cl)cc(Cl)c2)s1)c1nncn1C`, the “% Inhibition” value is reported as -5% and the Z score is reported as 0.51.
In the case of `O=C(N[C@@H](Cn1nccn1)c1ccccc1)c1ccncc1`, the “% Inhibition” value is reported as -13% and the Z score is reported as 1.97.
With `Cc1ccc(-c2cc3c(N4CC=C(c5ccccc5)CC4)nccn3n2)c(C)c1` the “% Inhibition” value was 38% and the Z score was -1.53.
With `COC(C)(C)c1noc(Cc2c[nH]c3ccccc23)n1` the “% Inhibition” value was 30% and the Z score was -3.38.
`COc1ccc(C)cc1NC(=O)N1CC(c2nc(C(C)C)nn2C)C1` was tested, and the “% Inhibition” value was 33% and the Z score was -4.47.
With `Cc1cccc(-c2ccc(Cn3ccnc3)cn2)c1C` the “% Inhibition” value was -8% and the Z score was 0.98.
In the case of `CCn1cnnc1CNC(=O)c1cccnc1`, the “% Inhibition” value is reported as -11% and the Z score is reported as 1.44.
With `CC(C)(C)OC(=O)N[C@H]1CCN(CC(F)(F)F)C1` the “% Inhibition” value was -4% and the Z score was 0.47.
In the case of `Cc1cc(C(=O)N2CCc3[nH]cnc3[C@H]2c2ccncc2)nc(C)n1`, the “% Inhibition” value is reported as -4% and the Z score is reported as 0.59.
`COc1cccc(C(=O)N2CCCN(c3cc(-c4ccccc4)n[nH]3)CC2)c1` was tested, and the “% Inhibition” value was -7% and the Z score was 0.71.
`O=C(c1cccc2c1NCCC2)N1CCN(c2nc[nH]n2)CC1` was tested, and the “% Inhibition” value was -6% and the Z score was 1.09.
With `C[C@H]1CCCN(C(=O)c2nc3ccccn3c2-c2ccc(F)cc2)C1` the “% Inhibition” value was -4% and the Z score was 0.65.
`CCCN(CCC)CCNc1ncnc2onc(C)c12` was tested, and the “% Inhibition” value was -3% and the Z score was 0.48.
With `CC(C)[C@H](O)C(=O)N1CCc2onc(-c3ccc(F)c(F)c3)c2C1` the “% Inhibition” value was -16% and the Z score was 1.51.
In the case of `CN(CCc1ccccn1)Cc1cc(C(N)=O)cs1`, the “% Inhibition” value is reported as -4% and the Z score is reported as 0.52.
`COC(=O)C1CN(C(=O)C2COCCO2)c2ccc(F)cc2O1` (stereo not given) was tested, and the “% Inhibition” value was -9% and the Z score was 1.1.
For `O=C(c1ccsc1)N1CCO[C@H](c2ccccc2)C1`, the “% Inhibition” value was -6% and the Z score was 0.73.
With `Cc1cc(C(=O)N2CC[C@H](Cc3nc4cccnc4n3CC(C)C)C2)nn1C` the “% Inhibition” value was -8% and the Z score was 0.82.
`CCOc1ccc(-c2c[nH]c(-c3cccc(C(=O)OC)n3)n2)cc1` was tested, and the “% Inhibition” value was 0% and the Z score was 0.02.
With `Cc1ncsc1CN(C)Cc1nncn1C` the “% Inhibition” value was -20% and the Z score was 2.53.
For `CNCCCNC(=O)c1cnc(-c2cc(Cl)cc(Cl)c2)nc1O`, the “% Inhibition” value was -10% and the Z score was 1.71.
In the case of `Cc1nsc(N(C)Cc2nc3ccccc3s2)n1`, the “% Inhibition” value is reported as 4% and the Z score is reported as -0.55.
`Nc1c(C(=O)N2CCCCC2)sc2ncccc12` was tested, and the “% Inhibition” value was -13% and the Z score was 1.61.
